# Screen size: about 340,000 compounds; about 530 (0.16%) were called active. The inconclusive results got no clear call from the source; some entries with a clear call stand among them for comparison. Rule as the data show it: active = activity change below about -80%; inconclusive = between about -30% and that limit; inactive = weaker than that.
# Assay: Small Molecules that selectively kill Giardia lamblia: qHTS;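 also: parasites exposed to compound for two days anaerobically before the ATP read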
# Conditions: Giardia lamblia trophozoite viability; at 7.66 µM; active compounds read low
# Outline: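 Giardia lamblia trophozoites (100 cells/well) were incubated with compounds for 48 h at 37 deg C under anaerobic conditions. Viability was read as ATP content by one-step luminescence after 15-30 min at room temperature.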
# % is scaled to controls: 0 for no effect and ±100 for the full control effect.
row,Structure (SMILES),activity change
1,Cc1nnc(N/N=C/c2ccc(Br)cc2)n1N,inconclusive: -40.6% [inhibitor]
2,Cc1ccc(-n2c(=O)c3sccc3n(CC(=O)NCc3ccco3)c2=O)cc1,inactive: -5.37%
3,CC(C)CCNC(=O)CN(Cc1ccccc1)C(=O)CCC(=O)Nc1ccccn1,inconclusive: -36.9% [inhibitor]
4,O=C(c1ccccc1NS(=O)(=O)c1ccc(Cl)cc1)N1CCc2ccccc21,inconclusive: -31.3% [inhibitor]
5,O=C(c1ccc(-c2ccccc2)c(F)c1)C1CCCN(C(=O)c2cncs2)C1 (stereo not given),inactive: 9.05%
6,Cc1cccc(N2CCN(C(=O)Cn3cnc4c3c(=O)n(C)c(=O)n4C)CC2)c1C,inconclusive: -33.1% [inhibitor]
7,COc1nc(OC)nc(N2CCC(C(=O)Nc3cccc4c3CCCC4)CC2)n1,inconclusive: -37.7% [inhibitor]
8,CC(C)C(OC(=O)c1cccs1)C(=O)NC1CCCCC1 (stereo not given),inconclusive: -33.2% [inhibitor]
9,Cc1ccnc(NC(=O)CCC(=O)N(CC(=O)NC(C)(C)C)c2ccc3c(c2)OCCO3)c1,inconclusive: -32.4% [inhibitor]
10,CC1CCc2sc(C(=O)NC(C)C3CCCO3)cc2C1 (stereo not given),inactive: -18.9%
11,Nc1nc(F)nc2c1ncn2[C@@H]1O[C@H](CO)[C@@H](O)[C@@H]1O,inconclusive: -72.2% [inhibitor]
12,O=C(c1cccc(F)c1)N1CCN(c2ccc([N+](=O)[O-])c3cccnc23)CC1,active: -82.8%
13,O=C(Nc1ccc(Cl)cn1)c1ccccc1F,inconclusive: -30.8% [inhibitor]
14,CCCCCCCCCCCCCCCCn1cc[n+](C)c1,inconclusive: -33.5% [inhibitor]
15,COC(=O)[C@]1(C)N[C@H](CN(C)C(C)=O)[C@@H]2C(=O)N(Cc3ccccc3)C(=O)[C@@H]21,inconclusive: -34.5% [inhibitor]
16,OC(CNCCc1ccccc1)COc1ccc(OCC(O)CNCCc2ccccc2)cc1 (stereo not given),inconclusive: -30.9% [inhibitor]
17,COC(=O)N[C@H](c1ccccc1)[C@@]1(C)C[C@@H]1[C@@H](C)C(=O)Nc1ccc2ccccc2c1,inconclusive: -36.5% [inhibitor]
18,Cc1ccc(-c2cnn3c(N4CCOCC4)cc(C)nc23)cc1,inactive: -5.41%
19,Fc1ccc(-c2nnc(CSc3nnc(-c4cccs4)o3)o2)cc1,inconclusive: -33% [inhibitor]
20,Cc1c(Cc2ccc3c(c2)OCO3)sc(NC(=O)c2ccccc2)c1C(N)=O,inactive: -3.92%
21,Cc1cccc(NC(=O)c2ccc(Cl)c(S(=O)(=O)N3CCc4ccccc43)c2)n1,inactive: -16.9%
22,O=[N+]([O-])c1ccc(-c2ccc(/C=N/n3cnnc3)o2)c(Br)c1,inconclusive: -39.5% [inhibitor]
23,COc1ccccc1OCCSc1nc2ccccc2n1CCC(=O)O,inactive: -8.9%
24,COC(=O)c1cccc(C(=O)N2CCCC(C(=O)c3ccccc3OC)C2)c1 (stereo not given),inactive: -5%
25,Cc1nc(SCc2nc3ccccc3[nH]2)c2oc3ccccc3c2n1,inactive: -14.4%

row,Structure (SMILES),activity change
1,Cc1ccc(C(=O)Nc2ccccc2N2CCCCC2)cc1[N+](=O)[O-],inconclusive: -30% [inhibitor]
2,COc1ccc(NC(=O)Cc2ccc(C)cc2)cc1S(=O)(=O)N1CCCCC1,inconclusive: -32.9% [inhibitor]
3,O=C(/C=C\Nc1ccc2c(c1)OCO2)c1ccccn1,inconclusive: -43.5% [inhibitor]
4,CC12CCC(C(=O)Nc3cccc(NC(=O)C45CCC(C)(C(=O)O4)C5(C)C)n3)(OC1=O)C2(C)C,inactive: 43.6%
5,CC(C)Cn1cnc2c1c(=O)n(CC(=O)NC(=O)NC(C)(C)C)c(=O)n2Cc1ccccc1,inactive: 13.7%
6,COc1ccc(NC(C)=O)cc1CNC(=O)COc1ccccc1C(=O)Nc1cccc(C)c1C,inconclusive: -32.5% [inhibitor]
7,Cn1nc(C(C)(C)C)c([N+](=O)[O-])c1C(N)=O,inconclusive: -30.5% [inhibitor]
8,CCOC(=O)c1c(CSCc2ccccc2)oc2ccc(O)c(CN(C)C)c12,inactive: -11%
9,O=c1cc(N2CCCCCC2)[nH]c(=O)n1-c1ccc(Cl)cc1,inconclusive: -33.3% [inhibitor]
10,NS(=O)(=O)c1ccc(NN=C2CCN(Cc3ccccc3)CC2)c([N+](=O)[O-])c1,inactive: -6.34%
11,CC1(C)CCC(=O)C=C1Nc1ccc(F)c(Cl)c1,inconclusive: -34.8% [inhibitor]
12,COc1ccc(CCNC(=O)CCN2C(=O)C(C)Oc3ccc(C)cc32)cc1OC (stereo not given),inactive: -11.4%
13,CN=c1sc2c(n1C)C(=O)c1ccccc1C2=O,inconclusive: -41% [inhibitor]
14,O=[N+]([O-])c1ccc(/C=N/NC(=S)Nc2ccc(Cl)cc2Cl)s1,inconclusive: -70.4% [inhibitor]
15,CCCCNC1=CC(=O)C(=O)c2ccccc21,inactive: 2.92%
16,Cc1ccc(OC[C@H](O)[C@H](C)NC(C)C)c2c1CCC2,inconclusive: -33% [inhibitor]
17,CN(C(=O)c1cccc(NC(=O)Cc2cccc([N+](=O)[O-])c2)c1)C1CC1,inactive: 6.27%
18,COc1ccc(C(=O)Nc2cnn(Cc3ccc(Cl)cc3)c2)cc1OC,inactive: -5.24%
19,Cc1nc2ccc(C(=O)Nc3ccc4nc[nH]c4c3)cc2[nH]1,inconclusive: -34.9% [inhibitor]
20,Nc1c(N(CCCO)C(=O)C2CCCC2)c(=O)[nH]c(=O)n1Cc1ccccc1,inconclusive: -34.2% [inhibitor]
21,CCNC(=O)C(Sc1ccccc1)c1ccccc1 (stereo not given),inactive: -2.82%
22,CCc1ccc2nc3sc(C(=O)O)cc3cc2c1,inconclusive: -47.4% [inhibitor]
23,CN1CCn2c1nc(N1CCCCC1)nc2=O,inconclusive: -33.3% [inhibitor]
24,CCOC(=O)C(C)(C)N(Cc1ccc(C)cc1)S(=O)(=O)c1ccc(Cl)c([N+](=O)[O-])c1,inactive: -4.81%
25,CCCn1c(N)c(C(=O)CSc2nc(N)cc(=O)[nH]2)c(=O)n(C)c1=O,inconclusive: -35.8% [inhibitor]

# — PubChem BioAssay AID540267 (National Center for Advancing Translational Sciences (NCATS), 2011)
